# From the antibiotic and cytotoxicity screens of Wong et al. (2023)
# Some of the results follow.
# Key:
# HSkMC = human skeletal muscle cells; assay: cytotoxicity call (relative viability < 0.9); conditions: 10 µM
# HepG2 = assay: cytotoxicity call (relative viability < 0.9); conditions: 10 µM
# S. aureus RN4220 = assay: growth inhibition call (relative growth <= 0.2); conditions: 50 µM
SMILES,cytotoxicity call (HSkMC),cytotoxicity call (HepG2),growth inhibition call (S. aureus RN4220)
CON=C1CN(c2nc3c(cc2F)c(=O)c(C(=O)O)cn3C2CC2)CC1CN.CS(=O)(=O)O (centres undefined),inactive,inactive,active
CO[C@@H]1CN(C)C(=O)c2cc(NC(=O)NC(C)C)ccc2OC[C@H](C)N(Cc2ccc(-c3ccccn3)cc2)C[C@@H]1C,inactive,inactive,inactive
C[C@@H]1CCCCO[C@@H](CN(C)Cc2ccc(C(F)(F)F)cc2)[C@@H](C)CN([C@H](C)CO)C(=O)c2cc(NC(=O)CCCCCC(=O)Nc3ccccc3N)ccc2O1,inactive,inactive,inactive
O=C(C[C@H]1C=C[C@@H](NC(=O)c2cccnc2)[C@@H](CO)O1)NCc1ccncn1,inactive,inactive,inactive
O=C(C[C@@H]1CC=CCC[C@@H](Cc2ccc(F)cc2)C(=O)OC[C@H](Cc2c[nH]c3ccccc23)NC1=O)N[C@@H](CO)Cc1ccccc1,inactive,active,inactive
COc1cccc(CN2C[C@@H](C)[C@H](OC)CN(C)C(=O)c3cc(NS(=O)(=O)c4cn(C)cn4)ccc3OC[C@H]2C)c1,inactive,inactive,inactive
Cc1noc(C)c1NC(=O)Nc1ccc2c(c1)CC(=O)N([C@H](C)CO)C[C@H](C)[C@H](CN(C)S(=O)(=O)c1ccccc1)O2,inactive,inactive,inactive
CC(C)NC(=O)N(C)C[C@@H]1Oc2c(NS(=O)(=O)c3ccccc3)cccc2C(=O)N([C@@H](C)CO)C[C@@H]1C,inactive,inactive,inactive
COc1ccc(S(=O)(=O)Nc2cccc3c2O[C@@H](CN(C)S(=O)(=O)c2ccc(F)cc2)[C@@H](C)CN([C@H](C)CO)C3=O)cc1,inactive,inactive,inactive
C[N+](C)(C)CCCCCCNC(=O)[C@H]1C[C@H]2C(=O)N[C@@H](CCCC[N+](C)(C)C)C(=O)N2[C@H]1c1ccc(O)cc1,inactive,inactive,inactive
C[C@H](CO)N1C[C@H](C)[C@@H](CN(C)S(=O)(=O)c2ccccc2)OCCCC[C@H](C)Oc2ccc(NS(=O)(=O)c3ccc(Cl)cc3)cc2C1=O,inactive,inactive,inactive
COCC(=O)Nc1ccc2c(c1)C(=O)N(C)C[C@@H](OC)[C@@H](C)CN(Cc1cccc(F)c1)[C@@H](C)CO2,inactive,inactive,inactive
CC(C)N1C(=O)[C@@H]2[C@@H](C1=O)[C@@H]1C=C[C@@H]2O1,inactive,inactive,inactive
COc1ccc(S(=O)(=O)Nc2ccc3c(c2)C(=O)N([C@H](C)CO)C[C@H](C)[C@H](CN(C)Cc2ccncc2)O3)cc1,inactive,inactive,inactive
COc1ccc(N2C(=O)C[C@@H](c3ccc(Br)cc3)[C@H]2C(=O)Nc2cccc3cccnc23)cc1,inactive,inactive,inactive
C[C@H]1CC/C=C\[C@H]2O[C@@]34C=CCN(CCN5CCOCC5)C(=O)[C@H]3N(CCCO)C(=O)[C@@H]4[C@@H]2C(=O)O1,inactive,inactive,inactive
CC1(C)SC2C(NC(=O)C(N)c3ccccc3)C(=O)N2C1C(=O)[O-].[Na+] (centres undefined),inactive,inactive,inactive
Cc1ccc(S(=O)(=O)N(C)C[C@@H]2Oc3ccc(NC(=O)Nc4ccc(C(F)(F)F)cc4)cc3CC(=O)N([C@@H](C)CO)C[C@H]2C)cc1,active,active,inactive
C[C@H]1CN([C@@H](C)CO)C(=O)c2cccc(N(C)C)c2O[C@@H]1CN(C)S(C)(=O)=O,inactive,inactive,inactive
COc1cccc(S(=O)(=O)N(C)C[C@@H]2Oc3ncc(C#CC(C)C)cc3C(=O)N([C@@H](C)CO)C[C@H]2C)c1,inactive,inactive,inactive
COC[C@H](NC(=O)c1cnc(C)s1)C(=O)N[C@@H](COC)C(=O)N[C@@H](Cc1ccccc1)C(=O)[C@@]1(C)CO1,active,active,inactive
CC(C)NC(=O)NCC[C@@H]1CC[C@@H](NC(=O)CN(C)C)[C@@H](CO)O1,inactive,inactive,inactive
I.[KH],inactive,inactive,inactive
Cc1cc(C(=O)Nc2cccc3c2O[C@H](CN(C)S(=O)(=O)c2cn(C)cn2)[C@@H](C)CN([C@H](C)CO)C3=O)n(C)n1,inactive,inactive,inactive
c1csc([C@@H]2CNCCN2)c1,inactive,inactive,inactive
O=C(C[C@H]1CC[C@@H]2[C@H](COC[C@@H](O)CN2S(=O)(=O)c2ccccc2)O1)NCCN1CCCC1,inactive,inactive,inactive
COc1cc2ccccc2cc1C(=O)OCC(=O)N(CC(C)C)c1c(N)n(Cc2ccccc2)c(=O)[nH]c1=O,inactive,inactive,inactive
COc1ccc2c3c([nH]c2c1)[C@H](CO)N(C[C@]13CCN(CC1)C(=O)Nc1ccc2c(c1)OCO2)C(=O)Nc1ccc(cc1)F,inactive,inactive,inactive
